# Measured values published in paper PMC9911399, “Two distinct binding modes provide the RNA-binding protein RbFox with extraordinary sequence specificity”.
# Substitutions are numbered along the chain they refer to; changes in the protein carry UniProt numbers. The list shows a part of the results.
# T1: RBFOX1 RRM RbFoxmut (Fox-RRM*) (Homo sapiens, UniProt Q9NWB1 109-208, R118D;E147R;N151S;E152T)
# T1 sequence: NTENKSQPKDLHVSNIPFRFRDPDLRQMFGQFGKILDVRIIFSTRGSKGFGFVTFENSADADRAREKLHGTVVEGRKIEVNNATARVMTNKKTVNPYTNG
# B1: CGUGAGG (DNA:RNA)
# RNA: GGGAGACCGGAAUUCAGAUUGUCCCGUGAGGUUAAAUCCCGUCGUAGCCACCA
# DNA 1: CAATCTGAATTCCGGTCTCCC
# DNA 2: TGGTGGCTACGACGGGATT
# B2: AGAGUAU (DNA:RNA)
# RNA: B1 RNA with C25A, U27A, A29U, G30A, G31U
# DNA 1: CAATCTGAATTCCGGTCTCCC
# DNA 2: TGGTGGCTACGACGGGATT
# B3: GCCACAG (DNA:RNA)
# RNA: B1 RNA with C25G, G26C, U27C, G28A, A29C, G30A
# DNA 1: CAATCTGAATTCCGGTCTCCC
# DNA 2: TGGTGGCTACGACGGGATT
# B4: CGUGCGG (DNA:RNA)
# RNA: B1 RNA with A29C
# DNA 1: CAATCTGAATTCCGGTCTCCC
# DNA 2: TGGTGGCTACGACGGGATT
# B5: CAGGUUG (DNA:RNA)
# RNA: B1 RNA with G26A, U27G, A29U, G30U
# DNA 1: CAATCTGAATTCCGGTCTCCC
# DNA 2: TGGTGGCTACGACGGGATT
# B6: GUGUCCA (DNA:RNA)
# RNA: GGGAGACCGGAAUUCAGAUUGUCCGUGUCCAUUAAAUCCCGUCGUAGCCACCA
# DNA 1: CAATCTGAATTCCGGTCTCCC
# DNA 2: TGGTGGCTACGACGGGATT
# B7: ACUGUAC (DNA:RNA)
# RNA: B1 RNA with C25A, G26C, A29U, G30A, G31C
# DNA 1: CAATCTGAATTCCGGTCTCCC
# DNA 2: TGGTGGCTACGACGGGATT
# B8: CAUAUGA (DNA:RNA)
# RNA: B1 RNA with G26A, G28A, A29U, G31A
# DNA 1: CAATCTGAATTCCGGTCTCCC
# DNA 2: TGGTGGCTACGACGGGATT
# B9: GCUGGCG (DNA:RNA)
# RNA: B1 RNA with C25G, G26C, A29G, G30C
# DNA 1: CAATCTGAATTCCGGTCTCCC
# DNA 2: TGGTGGCTACGACGGGATT
# B10: CAGAAUG (DNA:RNA)
# RNA: B1 RNA with G26A, U27G, G28A, G30U
# DNA 1: CAATCTGAATTCCGGTCTCCC
# DNA 2: TGGTGGCTACGACGGGATT
# B11: CUGAACA (DNA:RNA)
# RNA: B6 RNA with G25C, U28A, C29A
# DNA 1: CAATCTGAATTCCGGTCTCCC
# DNA 2: TGGTGGCTACGACGGGATT
# B12: CUCGGAC (DNA:RNA)
# RNA: B1 RNA with G26U, U27C, A29G, G30A, G31C
# DNA 1: CAATCTGAATTCCGGTCTCCC
# DNA 2: TGGTGGCTACGACGGGATT
# B13: AAAAACA (DNA:RNA)
# RNA: B6 RNA with G25A, U26A, G27A, U28A, C29A
# DNA 1: CAATCTGAATTCCGGTCTCCC
# DNA 2: TGGTGGCTACGACGGGATT
# B14: UGGUUAU (DNA:RNA)
# RNA: B6 RNA with G25U, U26G, C29U, C30A, A31U
# DNA 1: CAATCTGAATTCCGGTCTCCC
# DNA 2: TGGTGGCTACGACGGGATT
# B15: UCACUCA (DNA:RNA)
# RNA: B6 RNA with G25U, U26C, G27A, U28C, C29U
# DNA 1: CAATCTGAATTCCGGTCTCCC
# DNA 2: TGGTGGCTACGACGGGATT
# B16: CACAACG (DNA:RNA)
# RNA: B1 RNA with G26A, U27C, G28A, G30C
# DNA 1: CAATCTGAATTCCGGTCTCCC
# DNA 2: TGGTGGCTACGACGGGATT
# B17: CGAAACC (DNA:RNA)
# RNA: B1 RNA with U27A, G28A, G30C, G31C
# DNA 1: CAATCTGAATTCCGGTCTCCC
# DNA 2: TGGTGGCTACGACGGGATT
# B18: UAAUCGU (DNA:RNA)
# RNA: B6 RNA with G25U, U26A, G27A, C30G, A31U
# DNA 1: CAATCTGAATTCCGGTCTCCC
# DNA 2: TGGTGGCTACGACGGGATT
# B19: CUACUUG (DNA:RNA)
# RNA: B1 RNA with G26U, U27A, G28C, A29U, G30U
# DNA 1: CAATCTGAATTCCGGTCTCCC
# DNA 2: TGGTGGCTACGACGGGATT
# B20: UGAAGGG (DNA:RNA)
# RNA: B1 RNA with C25U, U27A, G28A, A29G
# DNA 1: CAATCTGAATTCCGGTCTCCC
# DNA 2: TGGTGGCTACGACGGGATT
# B21: UUUAGUU (DNA:RNA)
# RNA: B1 RNA with C25U, G26U, G28A, A29G, G30U, G31U
# DNA 1: CAATCTGAATTCCGGTCTCCC
# DNA 2: TGGTGGCTACGACGGGATT
# B22: CAUGAAA (DNA:RNA)
# RNA: B1 RNA with G26A, G30A, G31A
# DNA 1: CAATCTGAATTCCGGTCTCCC
# DNA 2: TGGTGGCTACGACGGGATT
# B23: GGGAGAA (DNA:RNA)
# RNA: B6 RNA with U26G, U28A, C29G, C30A
# DNA 1: CAATCTGAATTCCGGTCTCCC
# DNA 2: TGGTGGCTACGACGGGATT
# B24: CGUCCAC (DNA:RNA)
# RNA: B1 RNA with G28C, A29C, G30A, G31C
# DNA 1: CAATCTGAATTCCGGTCTCCC
# DNA 2: TGGTGGCTACGACGGGATT
# B25: AAUCCCC (DNA:RNA)
# RNA: B6 RNA with G25A, U26A, G27U, U28C, A31C
# DNA 1: CAATCTGAATTCCGGTCTCCC
# DNA 2: TGGTGGCTACGACGGGATT
# B26: CCGGAGG (DNA:RNA)
# RNA: B1 RNA with G26C, U27G
# DNA 1: CAATCTGAATTCCGGTCTCCC
# DNA 2: TGGTGGCTACGACGGGATT
# B27: AAAAAUC (DNA:RNA)
# RNA: B1 RNA with C25A, G26A, U27A, G28A, G30U, G31C
# DNA 1: CAATCTGAATTCCGGTCTCCC
# DNA 2: TGGTGGCTACGACGGGATT
# B28: GUGUUAU (DNA:RNA)
# RNA: B6 RNA with C29U, C30A, A31U
# DNA 1: CAATCTGAATTCCGGTCTCCC
# DNA 2: TGGTGGCTACGACGGGATT
# B29: AGUCAAG (DNA:RNA)
# RNA: B1 RNA with C25A, G28C, G30A
# DNA 1: CAATCTGAATTCCGGTCTCCC
# DNA 2: TGGTGGCTACGACGGGATT
# B30: AUCACUC (DNA:RNA)
# RNA: B6 RNA with G25A, G27C, U28A, C30U, A31C
# DNA 1: CAATCTGAATTCCGGTCTCCC
# DNA 2: TGGTGGCTACGACGGGATT
# B31: GGCCAGU (DNA:RNA)
# RNA: B1 RNA with C25G, U27C, G28C, G31U
# DNA 1: CAATCTGAATTCCGGTCTCCC
# DNA 2: TGGTGGCTACGACGGGATT
# Target: T1, RBFOX1 RRM RbFoxmut (Fox-RRM*)
# Assay: EMSA; HiTS-Eq, 1 nM pool, 10 min; buffer printed only for the single-RNA assays: 10 mM Tris pH 7.5, 150 mM NaCl, 3.4 mM EDTA, 0.001% NP-40, 30 C
# Conditions: tags: His6 N-terminal (pET28a); label: 5' 32P
# Method in brief: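 Purified wild-type or mutant RbFox RRM at increasing concentrations was equilibrated with 1 nM of 5′-radiolabelled RNA carrying 7 randomized nucleotides for 10 min in 50 µL. Unbound RNA was separated by 8% native PAGE and sequenced. Relative association constants came from read-count changes of each RNA species compared with the control reaction, normalised to the cognate motif.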
row,Binder,binding signal
1,B1,0.105 KA relative to UGCAUGU
2,B2,0.121 KA relative to UGCAUGU
3,B3,0.0788 KA relative to UGCAUGU
4,B4,0.106 KA relative to UGCAUGU
5,B5,0.371 KA relative to UGCAUGU
6,B6,0.121 KA relative to UGCAUGU
7,B7,0.112 KA relative to UGCAUGU
8,B8,0.117 KA relative to UGCAUGU
9,B9,0.139 KA relative to UGCAUGU
10,B10,1.17 KA relative to UGCAUGU
11,B11,0.0653 KA relative to UGCAUGU
12,B12,0.0724 KA relative to UGCAUGU
13,B13,0.075 KA relative to UGCAUGU
14,B14,0.126 KA relative to UGCAUGU
15,B15,0.0908 KA relative to UGCAUGU
16,B16,0.0933 KA relative to UGCAUGU

row,Binder,binding signal
1,B17,0.0635 KA relative to UGCAUGU
2,B18,0.0796 KA relative to UGCAUGU
3,B19,0.102 KA relative to UGCAUGU
4,B20,0.0325 KA relative to UGCAUGU
5,B21,0.101 KA relative to UGCAUGU
6,B22,0.114 KA relative to UGCAUGU
7,B23,0.107 KA relative to UGCAUGU
8,B24,0.0664 KA relative to UGCAUGU
9,B25,0.0723 KA relative to UGCAUGU
10,B26,0.107 KA relative to UGCAUGU
11,B27,0.0405 KA relative to UGCAUGU
12,B28,0.127 KA relative to UGCAUGU
13,B29,0.0887 KA relative to UGCAUGU
14,B30,0.0365 KA relative to UGCAUGU
15,B31,0.0703 KA relative to UGCAUGU
